Screen size: about 370,000 compounds; about 150 (0.041%) were called active. This list was built around the results that the source calls inconclusive (neither active nor inactive); the mix of calls is not that of the screen. Calls follow the shape of the dose curve; as a rule, active = well fitted inhibition curve with a large enough effect; inconclusive = small, poorly fitted or top-dose-only effect; inactive = flat fitted curve, though single readings scatter. No potency is given beside an inconclusive call; the fits are too rough.
What follows are compounds tested against Beta-lactamase (Escherichia coli (strain K12)) (UniProt P00811) (assay: qHTS Inhibitors of AmpC Beta-Lactamase (assay with detergent)). Settings: AmpC hydrolysis of nitrocefin, absorbance 480 nm, 0.01% Triton; series mostly up to 114 µM.
Chain of UniProt P00811 (P00811 whole entry, looked up): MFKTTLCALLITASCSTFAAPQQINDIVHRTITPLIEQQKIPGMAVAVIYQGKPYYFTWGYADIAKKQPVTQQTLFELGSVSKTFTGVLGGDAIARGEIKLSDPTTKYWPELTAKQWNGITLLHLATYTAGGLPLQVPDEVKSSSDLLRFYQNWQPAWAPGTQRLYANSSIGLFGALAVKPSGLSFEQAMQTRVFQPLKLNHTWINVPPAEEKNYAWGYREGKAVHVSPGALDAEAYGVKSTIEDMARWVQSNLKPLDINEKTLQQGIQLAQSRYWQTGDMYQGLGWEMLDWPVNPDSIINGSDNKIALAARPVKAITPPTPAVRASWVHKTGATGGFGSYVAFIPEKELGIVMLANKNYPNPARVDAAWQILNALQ
In short: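 20 mM phosphate pH 7.0 + 0.01% (detergent screen) or 0.0001% Triton X-100; 5.3 nM AmpC reagent; cpd preinc 15 min RT; nitrocefin (800 uM stock) to start; A480 q20 s × 4 min; Activity was normalised to no-enzyme and no-compound control wells.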
Also: nearly all actives have a fitted effect of over 25% in size.
Potency is read from the fitted curve at half-maximal effect; tags tell the direction and shape of the fitted curve.

Row | Structure (SMILES) | Potency
1 | CC(=O)O[C@@]12CO[C@@H]1C[C@H](O)[C@@]1(C)C(=O)[C@H](O)C3=C(C)[C@@H](O)C[C@@](O)([C@@H](OC(=O)c4ccccc4)C12)C3(C)C (some centres not stated) | inconclusive [inhibitor, full curve, poor fit]
2 | CCOc1ccc(NC(=O)CN2CCN(C3c4ccccc4-c4ccccc43)CC2)cc1 | inconclusive [inhibitor, single point]
3 | COCCCN1Cc2cccc(C(=O)O)c2C1=O | inconclusive [inhibitor, full curve, poor fit]
4 | O=C(CN(Cc1ccco1)C(=O)CCC(=O)Nc1nccs1)NCc1ccccc1 | inconclusive [inhibitor, full curve, poor fit]
5 | O=C(CSc1nnc(NC(=O)c2ccccc2Cl)s1)Nc1ccc2c(c1)oc1ccccc12 | inconclusive [inhibitor, single point]
6 | O=C(Nc1ccc(S(=O)(=O)Nc2nccs2)cc1)/C(=C/c1ccccc1Cl)NC(=O)c1ccccc1 | inconclusive [inhibitor, full curve, poor fit]
7 | OCc1nc(CO)n(Cc2ccccc2)n1 | inconclusive [inhibitor, full curve, poor fit]
8 | O=S(=O)(Nc1ccc(N2CCCCC2)cc1)c1ccccc1F | inactive
9 | Cc1c(C(=O)NCc2ccccc2CN2CCCC2)oc2c(F)cccc12 | inconclusive [inhibitor, partial curve, poor fit]
10 | CC(=O)N1CCc2cc(CNC(=O)Nc3ccc(Br)c(C)c3)ccc21 | inactive
11 | COc1cc(C)ccc1OCCOCCOc1ccc(C)cc1[N+](=O)[O-] | inconclusive [inhibitor, full curve, poor fit]
12 | N#C/C(=C\c1ccco1)c1nc2ccccc2s1 | inactive
13 | CN1CCN(C(=O)CC23CC4CC(CC(C4)C2)C3)CC1 | inconclusive [inhibitor, partial curve]
14 | CC(C)N(C)Cc1nnnn1CC(=O)NCc1cc(F)cc(C(F)(F)F)c1 | inconclusive [inhibitor, full curve, poor fit]
15 | COc1ccc(NC(=O)C2=C(C)Nc3ncnn3C2c2ccc[nH]2)cc1 (configuration not stated) | inactive
16 | O=C(Nc1cc2c(oc1=O)CCCC2=O)c1cccc(Cl)c1 | inconclusive [inhibitor, single point]
17 | Cc1cc(C)c(Cn2c(=O)n(CCCCC(=O)NCc3ccccc3Cl)c(=O)c3ccccc32)c(C)c1 | inactive
18 | Cc1ccnc(NS(=O)(=O)c2ccc(-n3cccn3)cc2)c1 | inactive
19 | O=C(c1ccc(S(=O)(=O)c2cccc(Cl)c2)c([N+](=O)[O-])c1)N1CCN(c2ccccn2)CC1 | inactive
20 | COCCOc1cc(NC(=O)c2ccccc2)c(Cl)cc1Cl | inconclusive [inhibitor, full curve, poor fit]
21 | O=c1c2[nH]c3cccc(Cl)c3c2ncn1Cc1ccncc1 | inconclusive [inhibitor, full curve, poor fit]

Row | Structure (SMILES) | Potency
22 | CCOc1cc(-c2nccc3cc(OC)c(OC)cc23)cc(OCC)c1OCC | inactive
23 | COc1ccc(OC)c(NC(=O)C2C3CCC(O3)C2C(=O)O)c1 (configuration not stated) | inconclusive [inhibitor, single point]
24 | Cc1cc(C)c(S(=O)(=O)N2CCCC(C(=O)N3CCOCC3)C2)c(C)c1 (configuration not stated) | inconclusive [inhibitor, full curve, poor fit]
25 | O=C(CNC(=O)c1cccc(F)c1)N/N=C/c1cc(Br)ccc1OCc1ccccc1 | inconclusive [inhibitor, partial curve]
26 | CCc1ccccc1NC(=S)NCCSc1ccc(Cl)cc1 | inconclusive [inhibitor, single point]
27 | COCCCNC(=O)C1Cc2cc(S(=O)(=O)N3CCCC3)ccc2N1C(C)=O (configuration not stated) | inactive
28 | Cc1cc(NC(=O)Cn2c(=O)oc3cc(S(=O)(=O)N4CCCC4)ccc32)ccc1Br | inactive
29 | COC(=O)/C(=C(/F)SCC(C)=O)C(F)(F)F | inconclusive [inhibitor, full curve, poor fit]
30 | Cn1cc(S(=O)(=O)Nc2ccc(F)c(Cl)c2)c(=O)n(C)c1=O | inconclusive [inhibitor, partial curve, poor fit]
31 | Cc1ccc(C)c(S(=O)(=O)Nc2cc(SCC(=O)O)c(O)c3ccccc23)c1 | inconclusive [inhibitor, single point]
32 | CC(=O)N1CCN2C(=O)C1CCCC(=O)c1cc(C3CCCCC3)ccc12 (configuration not stated) | inactive
33 | COc1cccc(N2CC(NC(=O)c3cccc4ccccc34)CC2=O)c1 (configuration not stated) | inconclusive [inhibitor, full curve, poor fit]
34 | Cc1ccc(N(Cc2cc3cccc(C)c3[nH]c2=O)S(=O)(=O)c2ccccc2)c(C)c1 | inconclusive [inhibitor, partial curve, poor fit]
35 | CCOC(=O)c1cnc2c(C)cc(Cl)cc2c1NCCCN1CCOCC1 | inactive
36 | CC(=O)Nc1ccc(NC(=O)c2ccc(-c3ccc([N+](=O)[O-])cc3)o2)cc1 | inactive
37 | Nc1c(C(=O)O)nnn1Cc1ccccc1 | inconclusive [inhibitor, full curve, poor fit]
38 | C/C(=N\NC(=O)c1c[nH]c2ccccc12)c1ccco1 | inactive
39 | CS(=O)(=O)N(CCC#N)Cc1ccc(/C=C2\C(=O)Nc3ccccc32)o1 | inconclusive [inhibitor, full curve]
40 | COCCN1CC(=O)N(c2cccc(C)c2C)C(c2ccc(Cl)cc2)C1=O (configuration not stated) | inconclusive [inhibitor, partial curve, poor fit]
41 | COc1ccc(NC(=S)N2CCNC(=O)C2CC(=O)Nc2ccc(C)cc2)cc1 (configuration not stated) | inconclusive [inhibitor, single point]
42 | CCOc1ccc(C2=NNC(c3cccs3)=Nc3ccc(OC)cc32)cc1OCC | inconclusive [inhibitor, full curve, poor fit]

— PubChem BioAssay AID485294 (National Center for Advancing Translational Sciences (NCATS), 2010)
